Data reported in the supplement of paper PMC8728848.
The other results are listed elsewhere or left out.

Key:
Assay in all cases: glycan array binding signal (z-score within array); higher = stronger binding
Conditions in all cases: glycan notation: IUPAC condensed, linker removed; mutation: H262T
[1] = target: Glc(b1-4)Glc
How it was run: (§1)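 Glycan array data were curated from 3228 arrays in the Consortium for Functional Glycomics database and kept only where the protein sequence was available. Glycan names were converted to IUPAC-condensed notation, and columns mapping to the same glycan were averaged. The binding signal is a within-array Z-score, averaged across arrays of the same protein sequence at different concentrations or buffers and across linkers. Negative Z-scores can be read as non-binding.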

[2] = target: Glc(b1-6)Glc
How it was run: as §1

[3] = target: GlcA(b1-3)Gal
How it was run: as §1

[4] = target: GlcA(b1-3)GlcNAc
How it was run: as §1

[5] = target: GlcA(b1-6)Gal
How it was run: as §1

[6] = target: GlcA3S(b1-3)Gal(b1-4)GlcNAc(b1-2)Man
How it was run: as §1

[7] = target: GlcA3S(b1-3)Gal(b1-4)GlcNAc(b1-3)Gal(b1-4)Glc
How it was run: as §1

[8] = target: GlcNAc(a1-3)Gal(b1-4)GlcNAc
How it was run: as §1

[9] = target: GlcNAc(a1-4)Gal(b1-3)GlcNAc
How it was run: as §1

[10] = target: GlcNAc(a1-4)Gal(b1-4)GalNAc
How it was run: as §1

[11] = target: GlcNAc(a1-4)Gal(b1-4)GlcNAc
How it was run: as §1

[12] = target: GlcNAc(a1-4)Gal(b1-4)GlcNAc(b1-3)Gal(b1-4)Glc
How it was run: as §1

[13] = target: GlcNAc(a1-4)Gal(b1-4)GlcNAc(b1-3)Gal(b1-4)GlcNAc
How it was run: as §1

[14] = target: GlcNAc(a1-4)Gal(b1-4)GlcNAc(b1-3)Gal(b1-4)GlcNAc(b1-3)Gal(b1-4)GlcNAc
How it was run: as §1

[15] = target: GlcNAc(a1-4)Gal(b1-4)GlcNAc(b1-3)Gal(b1-4)[Fuc(a1-3)]GlcNAc(b1-3)Gal(b1-4)[Fuc(a1-3)]GlcNAc
How it was run: as §1

[16] = target: GlcNAc(a1-6)Gal(b1-4)GlcNAc
How it was run: as §1

[17] = target: GlcNAc(b1-2)Gal(b1-3)GalNAc
How it was run: as §1

[18] = target: GlcNAc(b1-2)Man(a1-3)[GlcNAc(b1-2)Man(a1-6)]Man(b1-4)GlcNAc(b1-4)GlcNAc
How it was run: as §1

[19] = target: GlcNAc(b1-2)Man(a1-3)[GlcNAc(b1-2)Man(a1-6)]Man(b1-4)GlcNAc(b1-4)[Fuc(a1-6)]GlcNAc
How it was run: as §1

[20] = target: GlcNAc(b1-2)Man(a1-3)[GlcNAc(b1-4)][GlcNAc(b1-2)Man(a1-6)]Man(b1-4)GlcNAc(b1-4)GlcNAc
How it was run: as §1

[21] = target: GlcNAc(b1-2)Man(a1-3)[GlcNAc(b1-4)][GlcNAc(b1-2)Man(a1-6)]Man(b1-4)GlcNAc(b1-4)[Fuc(a1-6)]GlcNAc
How it was run: as §1

[22] = target: GlcNAc(b1-2)[GlcNAc(b1-4)]Man(a1-3)[GlcNAc(b1-2)Man(a1-6)]Man(b1-4)GlcNAc(b1-4)GlcNAc
How it was run: as §1

[23] = target: GlcNAc(b1-2)[GlcNAc(b1-4)]Man(a1-3)[GlcNAc(b1-4)][GlcNAc(b1-2)Man(a1-6)]Man(b1-4)GlcNAc(b1-4)GlcNAc
How it was run: as §1

[24] = target: GlcNAc(b1-2)[GlcNAc(b1-4)]Man(a1-3)[GlcNAc(b1-4)][GlcNAc(b1-2)[GlcNAc(b1-6)]Man(a1-6)]Man(b1-4)GlcNAc(b1-4)GlcNAc
How it was run: as §1

[25] = target: GlcNAc(b1-2)[GlcNAc(b1-4)]Man(a1-3)[GlcNAc(b1-4)][GlcNAc(b1-2)[GlcNAc(b1-6)]Man(a1-6)]Man(b1-4)GlcNAc(b1-4)[Fuc(a1-6)]GlcNAc
How it was run: as §1

[26] = target: GlcNAc(b1-2)[GlcNAc(b1-6)]Man(a1-6)[GlcNAc(b1-2)Man(a1-3)]Man(b1-4)GlcNAc(b1-4)GlcNAc
How it was run: as §1

[27] = target: GlcNAc(b1-2)[GlcNAc(b1-6)]Man(a1-6)[GlcNAc(b1-2)Man(a1-3)]Man(b1-4)GlcNAc(b1-4)[Fuc(a1-6)]GlcNAc
How it was run: as §1

[28] = target: GlcNAc(b1-2)[GlcNAc(b1-6)]Man(a1-6)[GlcNAc(b1-4)][GlcNAc(b1-2)Man(a1-3)]Man(b1-4)GlcNAc(b1-4)GlcNAc
How it was run: as §1

[29] = target: GlcNAc(b1-3)Fuc
How it was run: as §1

[30] = target: GlcNAc(b1-3)Gal
How it was run: as §1

[31] = target: GlcNAc(b1-3)Gal(b1-3)GalNAc
How it was run: as §1

[32] = target: GlcNAc(b1-3)Gal(b1-4)Glc
How it was run: as §1

[33] = target: GlcNAc(b1-3)Gal(b1-4)GlcNAc
How it was run: as §1

[34] = target: GlcNAc(b1-3)Gal(b1-4)GlcNAc(b1-2)Man(a1-3)[GlcNAc(b1-3)Gal(b1-4)GlcNAc(b1-2)Man(a1-6)]Man(b1-4)GlcNAc(b1-4)GlcNAc
How it was run: as §1

[35] = target: GlcNAc(b1-3)Gal(b1-4)GlcNAc(b1-2)Man(a1-3)[GlcNAc(b1-3)Gal(b1-4)GlcNAc(b1-2)Man(a1-6)]Man(b1-4)GlcNAc(b1-4)[Fuc(a1-6)]GlcNAc
How it was run: as §1

[36] = target: GlcNAc(b1-3)Gal(b1-4)GlcNAc(b1-2)[GlcNAc(b1-3)Gal(b1-4)GlcNAc(b1-6)]Man(a1-6)[GlcNAc(b1-3)Gal(b1-4)GlcNAc(b1-2)Man(a1-3)]Man(b1-4)GlcNAc(b1-4)GlcNAc
How it was run: as §1

[37] = target: GlcNAc(b1-3)Gal(b1-4)GlcNAc(b1-3)Gal(b1-4)GlcNAc
How it was run: as §1

[38] = target: GlcNAc(b1-3)Gal(b1-4)GlcNAc(b1-3)Gal(b1-4)GlcNAc(b1-2)Man(a1-3)[GlcNAc(b1-3)Gal(b1-4)GlcNAc(b1-3)Gal(b1-4)GlcNAc(b1-2)Man(a1-6)]Man(b1-4)GlcNAc(b1-4)GlcNAc
How it was run: as §1

[39] = target: GlcNAc(b1-3)Gal(b1-4)GlcNAc(b1-3)Gal(b1-4)GlcNAc(b1-2)Man(a1-3)[GlcNAc(b1-3)Gal(b1-4)GlcNAc(b1-3)Gal(b1-4)GlcNAc(b1-2)Man(a1-6)]Man(b1-4)GlcNAc(b1-4)[Fuc(a1-6)]GlcNAc
How it was run: as §1

[40] = target: GlcNAc(b1-3)Gal(b1-4)GlcNAc(b1-3)Gal(b1-4)GlcNAc(b1-2)[GlcNAc(b1-3)Gal(b1-4)GlcNAc(b1-3)Gal(b1-4)GlcNAc(b1-6)]Man(a1-6)[GlcNAc(b1-3)Gal(b1-4)GlcNAc(b1-3)Gal(b1-4)GlcNAc(b1-2)Man(a1-3)]Man(b1-4)GlcNAc(b1-4)[Fuc(a1-6)]GlcNAc
How it was run: as §1

[41] = target: GlcNAc(b1-3)Gal(b1-4)GlcNAc(b1-3)Gal(b1-4)GlcNAc(b1-3)Gal(b1-4)GlcNAc(b1-2)Man(a1-3)[GlcNAc(b1-3)Gal(b1-4)GlcNAc(b1-3)Gal(b1-4)GlcNAc(b1-3)Gal(b1-4)GlcNAc(b1-2)Man(a1-6)]Man(b1-4)GlcNAc(b1-4)GlcNAc
How it was run: as §1

[42] = target: GlcNAc(b1-3)Gal(b1-4)GlcNAc(b1-3)Gal(b1-4)GlcNAc(b1-3)Gal(b1-4)GlcNAc(b1-2)Man(a1-3)[GlcNAc(b1-3)Gal(b1-4)GlcNAc(b1-3)Gal(b1-4)GlcNAc(b1-3)Gal(b1-4)GlcNAc(b1-2)Man(a1-6)]Man(b1-4)GlcNAc(b1-4)[Fuc(a1-6)]GlcNAc
How it was run: as §1

[43] = target: GlcNAc(b1-3)Gal(b1-4)GlcNAc(b1-3)Gal(b1-4)GlcNAc(b1-3)Gal(b1-4)GlcNAc(b1-2)[GlcNAc(b1-3)Gal(b1-4)GlcNAc(b1-3)Gal(b1-4)GlcNAc(b1-3)Gal(b1-4)GlcNAc(b1-6)]Man(a1-6)[GlcNAc(b1-3)Gal(b1-4)GlcNAc(b1-3)Gal(b1-4)GlcNAc(b1-3)Gal(b1-4)GlcNAc(b1-2)Man(a1-3)]Man(b1-4)GlcNAc(b1-4)[Fuc(a1-6)]GlcNAc
How it was run: as §1

[44] = target: GlcNAc(b1-3)Gal(b1-4)GlcNAc(b1-3)Gal(b1-4)GlcNAc(b1-3)Gal(b1-4)GlcNAc(b1-3)Gal(b1-4)GlcNAc(b1-2)Man(a1-3)[GlcNAc(b1-3)Gal(b1-4)GlcNAc(b1-3)Gal(b1-4)GlcNAc(b1-3)Gal(b1-4)GlcNAc(b1-3)Gal(b1-4)GlcNAc(b1-2)Man(a1-6)]Man(b1-4)GlcNAc(b1-4)GlcNAc
How it was run: as §1

[45] = target: GlcNAc(b1-3)Gal(b1-4)GlcNAc(b1-3)Gal(b1-4)GlcNAc(b1-3)Gal(b1-4)GlcNAc(b1-3)Gal(b1-4)GlcNAc(b1-2)Man(a1-3)[GlcNAc(b1-3)Gal(b1-4)GlcNAc(b1-3)Gal(b1-4)GlcNAc(b1-3)Gal(b1-4)GlcNAc(b1-3)Gal(b1-4)GlcNAc(b1-2)Man(a1-6)]Man(b1-4)GlcNAc(b1-4)[Fuc(a1-6)]GlcNAc
How it was run: as §1

B1: MGL6A (Homo sapiens) (protein)
chain: MTRTYENFQYLENKVKVQGFKNGPLPLQSLLQRLCSGPCHLLLSLGLGLLLLVIICVVGFQNSKFQRDLVTLRTDFSNFTSNTVAEIQALTSQGSSLEETIASLKAEVEGFKQERQAVHSEMLLRVQQLVQDLKKLTCQVATLNNNGEEASTEGTCCPVNWVEHQDSCYWFSHSGMSWAEAEKYCQLKNAHLVVINSREEQNFVQKYLGSAYTWMGLSDPEGAWKWVDGTDYATGFQNWKPGQPDDWQGHGLGGGEDCAHFTPDGRWNDDVCQRPYHWVCEAGLGQTSQESH
glycan array binding signal (z-score) [1]: -0.174 | glycan array binding signal (z-score) [2]: -0.168 | glycan array binding signal (z-score) [3]: -0.17 | glycan array binding signal (z-score) [4]: -0.174 | glycan array binding signal (z-score) [5]: -0.173 | glycan array binding signal (z-score) [6]: -0.166 | glycan array binding signal (z-score) [7]: -0.178 | glycan array binding signal (z-score) [8]: -0.174 | glycan array binding signal (z-score) [9]: -0.167 | glycan array binding signal (z-score) [10]: -0.177 | glycan array binding signal (z-score) [11]: -0.173 | glycan array binding signal (z-score) [12]: -0.171 | glycan array binding signal (z-score) [13]: -0.17 | glycan array binding signal (z-score) [14]: -0.175 | glycan array binding signal (z-score) [15]: -0.166 | glycan array binding signal (z-score) [16]: -0.176 | glycan array binding signal (z-score) [17]: -0.165 | glycan array binding signal (z-score) [18]: -0.168 | glycan array binding signal (z-score) [19]: -0.174 | glycan array binding signal (z-score) [20]: -0.176 | glycan array binding signal (z-score) [21]: -0.177 | glycan array binding signal (z-score) [22]: -0.174 | glycan array binding signal (z-score) [23]: -0.167 | glycan array binding signal (z-score) [24]: -0.175 | glycan array binding signal (z-score) [25]: -0.175 | glycan array binding signal (z-score) [26]: -0.172 | glycan array binding signal (z-score) [27]: -0.173 | glycan array binding signal (z-score) [28]: -0.175 | glycan array binding signal (z-score) [29]: -0.169 | glycan array binding signal (z-score) [30]: -0.178 | glycan array binding signal (z-score) [31]: -0.166 | glycan array binding signal (z-score) [32]: -0.172 | glycan array binding signal (z-score) [33]: -0.176 | glycan array binding signal (z-score) [34]: -0.174 | glycan array binding signal (z-score) [35]: -0.168 | glycan array binding signal (z-score) [36]: -0.091 | glycan array binding signal (z-score) [37]: -0.179 | glycan array binding signal (z-score) [38]: -0.171 | glycan array binding signal (z-score) [39]: -0.168 | glycan array binding signal (z-score) [40]: -0.164 | glycan array binding signal (z-score) [41]: -0.164 | glycan array binding signal (z-score) [42]: -0.166 | glycan array binding signal (z-score) [43]: -0.162 | glycan array binding signal (z-score) [44]: -0.173 | glycan array binding signal (z-score) [45]: -0.15
